In the supplement of paper PMC12217912:
The other results are listed elsewhere or left out. The full chains were built here from the parent and the listed change. Values near 0.05 are background.

B1: TEV protease; numbered along this chain (parent)
chain: MGESLFKGPRDYNPISSSICHLTNESDGHTTSLYGIGFGPFIITNKHLFRRNNGTLVVQSLHGVFKVKDTTTLQQHLVDGRDMIIIRMPKDFPPFPQKLKFREPQREERICLVTTNFQTKSMSSMVSDTSCTFPSGDGIFWKHWIQTKDGQCGSPLVSTRDGFIVGIHSASNFTNTNNYFTSVPKNFMELLTNQEAQQWVSGWRLNADSVLWGGHKVFMVKPEEPFQPVKEATQL

Variants of: B1
Assay: raw area under fraction-flipped curve 0-4 h after induction (AUC4h, not background-subtracted), DNA-recorder readout of cleavage of the substrate (dimensionless); higher = more cleavage of the substrate by the protease variant
Settings: temperature: 34 °C; time window: 0-4 h after rhamnose induction
Method: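 In vivo DNA recorder in E. coli TOP10(DE3) ΔrhaA at 34 °C. Each TEVp single-site mutant (parent TEVp 0) is paired with a single-site variant of the 7-mer TEVs (canonical ENLYFQ|S). The substrate sits between flexible linkers in a Bxb1-sfGFP-TEVs-SsrA fusion, so cleavage stabilises Bxb1 and speeds flipping of a recombination array, read by NGS. The value is the raw area under the fraction-flipped curve over 0-4 h after rhamnose induction (AUC4h), with ≥20 reads per time point. It is not background-subtracted; inactive controls average about 0.047.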
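Also: Bxb1 expression induced with 0.2% (w/v) L-rhamnose at OD600 near 0.5, cultures sampled hourly, flipped fraction per protease–substrate barcode pair counted by paired-end Illumina sequencing.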

Row | Variant | area with substrate ENLYFAS | area with substrate ENLYFCS | area with substrate ENLYFES | area with substrate ENLYFFS | area with substrate ENLYFHS | area with substrate ENLYFIS | area with substrate ENLYFKS | area with substrate ENLYFLS | area with substrate ENLYFMS | area with substrate ENLYFNS | area with substrate ENLYFPS | area with substrate ENLYFRS | area with substrate ENLYFVS | area with substrate ENLYFWS | area with substrate ENLYFYS | area with substrate ENLYFDS | area with substrate ENLYFSS | area with substrate ENLYFTS | area with substrate ENLYFGS
1 | MGESLFKGPRDYNPISSSICHLTNESDGHTTSLYGIGFGPFIITNKHLFRRNNITLVVQSLHGVFKVKDTTTLQQHLVDGRDMIIIRMPKDFPPFPQKLKFREPQREERICLVTTNFQTKSMSSMVSDTSCTFPSGDGIFWKHWIQTKDGQCGSPLVSTRDGFIVGIHSASNFTNTNNYFTSVPKNFMELLTNQEAQQWVSGWRLNADSVLWGGHKVFMVKPEEPFQPVKEATQL [G54I] | 0.0578 | 0.0491 | 0.0552 | 0.0568 | 0.0572 | 0.0525 | 0.0558 | 0.0508 | 0.061 | 0.059 | 0.0502 | 0.0511 | 0.0541 | 0.0575 | 0.0392 | – | – | – | –
2 | MGESLFKGPRDYNPISSSICHLTNESDGHTTSLYGIGFGPFIITNKHQFRRNNGTLVVQSLHGVFKVKDTTTLQQHLVDGRDMIIIRMPKDFPPFPQKLKFREPQREERICLVTTNFQTKSMSSMVSDTSCTFPSGDGIFWKHWIQTKDGQCGSPLVSTRDGFIVGIHSASNFTNTNNYFTSVPKNFMELLTNQEAQQWVSGWRLNADSVLWGGHKVFMVKPEEPFQPVKEATQL [L48Q] | 0.048 | 0.0684 | 0.0528 | 0.0708 | 0.0466 | 0.0496 | 0.0533 | 0.0614 | 0.0624 | – | 0.0636 | – | 0.0419 | 0.0589 | 0.0578 | 0.0636 | 0.0468 | 0.0523 | –
3 | MGESLFKGPRDYNPISSSICHLTNESDGHTTSLYGIGFGPFIITNKHVFRRNNGTLVVQSLHGVFKVKDTTTLQQHLVDGRDMIIIRMPKDFPPFPQKLKFREPQREERICLVTTNFQTKSMSSMVSDTSCTFPSGDGIFWKHWIQTKDGQCGSPLVSTRDGFIVGIHSASNFTNTNNYFTSVPKNFMELLTNQEAQQWVSGWRLNADSVLWGGHKVFMVKPEEPFQPVKEATQL [L48V] | 0.061 | 0.0512 | 0.0626 | 0.0753 | 0.0438 | 0.0589 | 0.0607 | 0.0743 | 0.0646 | 0.0649 | 0.0686 | 0.058 | 0.0458 | 0.059 | 0.0626 | 0.0655 | – | 0.0663 | –
4 | MGESLFKGPRDYNPISSSICHLTNESDGHTTSLYGIGFGPFIITNKHKFRRNNGTLVVQSLHGVFKVKDTTTLQQHLVDGRDMIIIRMPKDFPPFPQKLKFREPQREERICLVTTNFQTKSMSSMVSDTSCTFPSGDGIFWKHWIQTKDGQCGSPLVSTRDGFIVGIHSASNFTNTNNYFTSVPKNFMELLTNQEAQQWVSGWRLNADSVLWGGHKVFMVKPEEPFQPVKEATQL [L48K] | 0.0534 | 0.0556 | 0.0654 | – | 0.0605 | 0.0687 | – | – | 0.0626 | 0.0601 | 0.0642 | 0.0626 | – | – | – | 0.0527 | 0.0429 | 0.0591 | –
5 | MGESLFKGPRDYNPISSSICHLTNESDGHTTSLYGIGFGPFIITNKHSFRRNNGTLVVQSLHGVFKVKDTTTLQQHLVDGRDMIIIRMPKDFPPFPQKLKFREPQREERICLVTTNFQTKSMSSMVSDTSCTFPSGDGIFWKHWIQTKDGQCGSPLVSTRDGFIVGIHSASNFTNTNNYFTSVPKNFMELLTNQEAQQWVSGWRLNADSVLWGGHKVFMVKPEEPFQPVKEATQL [L48S] | 0.0734 | – | – | 0.07 | 0.0511 | 0.0629 | 0.0572 | 0.0638 | 0.059 | 0.0734 | 0.0603 | 0.0573 | 0.0608 | 0.049 | 0.0526 | – | – | 0.0493 | 0.0649
